Experimental findings from paper doi:10.1101/2022.04.06.487260, “The purified recombinant FAT domain of the Focal Adhesion Kinase does not bind directly to recombinant Talin or MBD2 in vitro” (bioRxiv, 2022) are described below.

The assay concerns the target T1, FAT domain of human FAK (892-1052) (human, UniProt Q05397 892-1052).
T1 construct: focal adhesion kinase (FAK), human, residues 892-1052: FAT domain with N-terminal residues preceding the four-helix bundle (922-1049); Expressed as GST fusion from pGex-6P2 and released from the beads with 3C protease; 15N-labelled (M9 medium with 15N-NH4Cl) for the NMR experiments; also called FAT892-1052; FAK FAT; source: E. coli BL21, purified (Glutathione Sepharose 4B, 3C protease, Superdex …)
T1 sequence (looked up): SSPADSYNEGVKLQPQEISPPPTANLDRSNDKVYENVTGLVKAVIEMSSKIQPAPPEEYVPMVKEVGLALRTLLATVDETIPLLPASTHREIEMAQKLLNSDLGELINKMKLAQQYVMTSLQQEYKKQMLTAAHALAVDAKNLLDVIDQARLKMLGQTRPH
As to the kind of experiment: ITC; 100 μM MBD2 fragments titrated onto 5 μM FAT892-1052 in the cell; 15°C; 20 mM HEPES pH 7.5, 150 mM NaCl, 0.5 mM TCEP. The settings on record: both partners purified. Background: ITC needs no label: the signal is the heat of the interaction.

B1: MBD2 fragment 2 (MBD2 […]) (domain or fragment)
chain: not shown
notes: gene codon optimised and synthesised; Fragment 2 was also cloned, expressed and purified from pET28b with a His-tag; The forward primer encodes a 3C site before the fragment; source: E. coli BL21 (DE3), purified (Nickel beads, 3C protease, gel filtration)
Regarding B1, the Kd (commonly the free concentration of one partner at which half of the binding sites on the other are occupied at equilibrium, for simple one-to-one binding) was more than 20 µM.

B2: MBD2 fragment 3 (MBD2 […]) (domain or fragment)
chain: not shown
notes: gene codon optimised and synthesised; The forward primer encodes a 3C site before the fragment; source: E. coli BL21 (DE3), purified (Nickel beads, 3C protease, gel filtration)
With B2, the Kd is more than 20 µM.
